Measured values reported in patent US12448369B2 (Edgewise Therapeutics, Inc., priority 2023, dated 2025).
For at least one compound, name, drawing or mass did not settle the structure.

Experiments:
[1] = tested on: Rabbit Psoas myofibrils (skeletal myosin ATPase); assay: Myofibril ATPase assay, rabbit psoas (skeletal) myofibrils; format: biochemical; settings: rabbit psoas myofibrils
Experimental: (§1) Example 1. Myofibril ATPase Assay
(§2) Myofibril ATPase assays are known in the art to be useful in evaluating small molecules for the treatment of HCM and other cardiac indications. Myosin ATPase activity is assessed by using a coupled reaction system, in which ADP generated by the myosin ATPase function is coupled to the disappearance of NADH through the pyruvate kinase/lactate dehydrogenase (PK-LDH) system. ATPase activity produces ADP, which is used as a substrate for PK to produce pyruvate and regenerate ATP. The pyruvate is then used as a substrate by LDH to oxidize NADH to NAD+. The rate of the reaction is monitored through the time-dependent disappearance of NADH using absorbance at 340 nm, which, when the couple system is in stoichiometric excess, is directly correlated to the ATPase activity of the myosin. Inhibition of ATPase activity by the assayed compounds is indicated by a reduced rate of NADH loss, relative to vehicle-treated controls, over the experimental time window. Activation of ATPase activity by the assayed compounds is indicated by an increased rate of NADH loss, relative to vehicle-treated controls, over the experimental time window. Rabbit Psoas, Porcine atria, and Porcine ventricle are the primary sources of myofibril material.
(§3) Materials: The following stock solutions and reagents were used in the Myofibril ATPase Assay:
(§4) Stock Solutions of pCa buffer. Combine PIPES, CaCl2, and EGTA solutions with water. Adjust pH to 7.0 and bring final volume to 100 mL.
(§5) Buffer A & Buffer B. Prepare buffers A and B according to the table below.
(§6) Myofibril ATPase Assay Procedure: BSA, ATP, NADH, PEP, and DTT solutions were thawed at room temperature, then transferred to ice. Pellet-frozen myofibrils were transferred with approximately twice the required volume into a sufficiently large tube and capped. Myofibrils were thawed by rolling in a water bath for approximately 15 min at room temperature and cooled on ice. Buffers A and B were prepared by adjusting volumes as necessary for required number of wells and stored on ice. 0.5 μL of the compounds to be assayed were added into wells. 25 μL of Buffer A was dispensed into the wells, followed by 25 μL of Buffer B. The wells were measured for absorbance at 340 nm, using a kinetic protocol in which the wells are read every 1.5-2 min for 75 min. Assay data analysis was performed using a python script that filtered the raw data to retain those points falling between a starting and ending time and between a maximum and minimum absorbance, then used the filtered time-domain 340 nm absorbance data in each well to calculate a slope via linear regression analysis in units of mAU/min. Compound slopes were normalized between 100% and 0% activity, where 100% represented the slope of wells containing only compound vehicle, and fit to a 4-parameter logistic model. In addition to the fit parameters, the EC25% values were calculated, relative to the 100% normalized value. Additionally, the Y125 values were calculated for compounds that increased myosin ATP-ase activity. Fit parameters, calculated effective concentrations, filtered raw data, and calculated slopes were exported, in addition to compound-specific graphs of normalized ATPase activity versus concentration in μM. Each value reported in Table 5, Table 6, and Table 7 is either a Y75 value or a Y125 value. Values without a double cross sign, ‡, are Y75 values, which reflect the concentration required to reduce myosin ATP-ase activity by 25% (e.g., Y-axis activity value is 75% of initial value), relative to myosin ATP-ase activity in the absence of exogenous compound.
Skeletal Myofibril Isolation:
(§7) Myofibrils from various animals and tissue types were acquired from a variety of sources: rabbit psoas muscle was purchased from Pel-Freez Biologicals (Rogers, AR) and porcine cardiac muscle was purchased from Exemplar Genetics. All myofibrils were prepared using a method based upon those described in Herrmann et al. (1993) and summarized here. […]

[2] = tested on: Porcine atria myofibrils (atrial myosin ATPase); assay: Myofibril ATPase assay, porcine atria myofibrils; format: biochemical; settings: porcine atria myofibrils
Experimental: as §1, §2, §3, §4, §5, §6, §7

[3] = target: T1, Porcine ventricle myofibrils (ventricular myosin ATPase) (Sus scrofa, UniProt P79293); assay: Myofibril ATPase assay, porcine ventricle myofibrils; format: biochemical, porcine (Yucatan minipigs); settings: porcine ventricle myofibrils
T1 construct: Myofibrils from porcine cardiac muscle was isolated from the left ventricle of Yucatan minipigs; tissue Exemplar Genetics; host or cells: left ventricle of Yucatan minipigs, myofibrils prepared in house
T1 sequence (P79293 whole entry): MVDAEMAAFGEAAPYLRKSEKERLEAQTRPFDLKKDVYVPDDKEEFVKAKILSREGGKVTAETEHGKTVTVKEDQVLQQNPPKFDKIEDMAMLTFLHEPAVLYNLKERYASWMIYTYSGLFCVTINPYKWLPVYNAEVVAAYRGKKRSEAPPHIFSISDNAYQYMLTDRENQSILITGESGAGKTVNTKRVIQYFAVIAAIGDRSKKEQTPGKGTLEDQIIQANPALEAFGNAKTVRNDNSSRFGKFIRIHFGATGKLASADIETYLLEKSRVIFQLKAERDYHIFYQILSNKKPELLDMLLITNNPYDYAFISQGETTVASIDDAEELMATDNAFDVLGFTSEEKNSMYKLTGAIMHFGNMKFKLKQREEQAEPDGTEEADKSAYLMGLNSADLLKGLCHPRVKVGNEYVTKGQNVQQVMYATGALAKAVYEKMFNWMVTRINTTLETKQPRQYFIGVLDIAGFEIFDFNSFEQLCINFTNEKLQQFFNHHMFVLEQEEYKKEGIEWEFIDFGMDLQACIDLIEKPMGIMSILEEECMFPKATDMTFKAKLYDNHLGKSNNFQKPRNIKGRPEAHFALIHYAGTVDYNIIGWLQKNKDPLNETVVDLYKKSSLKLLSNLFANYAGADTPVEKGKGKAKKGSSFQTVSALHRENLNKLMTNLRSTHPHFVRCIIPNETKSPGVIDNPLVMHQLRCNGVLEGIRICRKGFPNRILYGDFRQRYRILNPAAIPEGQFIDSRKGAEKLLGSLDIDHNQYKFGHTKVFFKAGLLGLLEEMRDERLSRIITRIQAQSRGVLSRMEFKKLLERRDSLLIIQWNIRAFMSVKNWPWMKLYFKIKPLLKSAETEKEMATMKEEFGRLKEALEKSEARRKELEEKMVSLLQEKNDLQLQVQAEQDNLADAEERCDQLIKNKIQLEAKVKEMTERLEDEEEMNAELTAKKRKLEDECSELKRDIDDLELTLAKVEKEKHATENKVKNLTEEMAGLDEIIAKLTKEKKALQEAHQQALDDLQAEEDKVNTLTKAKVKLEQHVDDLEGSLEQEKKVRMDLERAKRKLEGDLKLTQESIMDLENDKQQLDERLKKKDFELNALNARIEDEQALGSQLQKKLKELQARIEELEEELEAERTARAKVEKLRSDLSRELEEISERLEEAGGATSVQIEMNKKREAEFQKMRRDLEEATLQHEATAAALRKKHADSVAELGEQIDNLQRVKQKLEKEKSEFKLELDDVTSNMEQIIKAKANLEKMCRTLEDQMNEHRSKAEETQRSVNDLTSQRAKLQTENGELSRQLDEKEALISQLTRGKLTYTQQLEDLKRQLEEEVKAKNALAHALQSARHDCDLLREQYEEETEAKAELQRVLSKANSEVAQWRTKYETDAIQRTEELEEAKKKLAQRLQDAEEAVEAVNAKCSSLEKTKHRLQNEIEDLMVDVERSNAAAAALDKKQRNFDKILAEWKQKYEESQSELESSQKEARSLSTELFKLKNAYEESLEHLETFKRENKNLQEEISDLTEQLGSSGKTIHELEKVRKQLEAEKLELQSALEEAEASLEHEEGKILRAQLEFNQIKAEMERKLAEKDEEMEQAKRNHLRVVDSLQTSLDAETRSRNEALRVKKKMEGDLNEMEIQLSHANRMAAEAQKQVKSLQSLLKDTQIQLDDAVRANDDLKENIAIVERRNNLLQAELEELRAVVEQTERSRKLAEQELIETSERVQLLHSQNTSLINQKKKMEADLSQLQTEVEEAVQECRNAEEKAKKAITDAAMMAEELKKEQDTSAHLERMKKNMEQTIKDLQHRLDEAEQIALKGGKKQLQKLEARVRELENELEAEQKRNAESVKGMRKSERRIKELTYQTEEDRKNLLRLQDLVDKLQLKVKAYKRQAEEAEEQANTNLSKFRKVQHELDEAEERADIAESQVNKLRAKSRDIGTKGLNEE
Experimental: as §1, §2, §3, §4, §5, §6
Cardiac Myofibril Isolation:
Myofibrils from porcine cardiac muscle was isolated from the left ventricle of Yucatan minipigs. Myofibrils were prepared using a method based upon those described in Herrmann et al. (1993) and summarized here. […]

[4] = Y75 value (75% activity relative to no compound)

Cc1c([C@@H](C)C(=O)N[C@@H](C)c2ccc(F)cc2F)c(=O)[nH]c2ccnc(C#N)c12 [compound 167]
Skeletal EC25 ([1]; Y75 value): 30 nM | Atrial EC25 [2, 4]: 180 nM | Ventricular EC25 ([3]; Y75 value): 1130 nM

Cc1c([C@@H](C)C(=O)N[C@H](C)c2ccc(C#N)cc2F)c(=O)[nH]c2ccnc(C#N)c12 (single isomer, unassigned) [compound 179]
Skeletal EC25 ([1]; Y75 value): 130 nM | Atrial EC25 [2, 4]: 710 nM | Ventricular EC25 ([3]; Y75 value): 2150 nM

C[C@@H](NC(=O)Cc1cc2c(C#N)c(F)ccc2[nH]c1=O)c1ncc(C#N)cn1 (single isomer, unassigned) [compound 2017]
Skeletal EC25 ([1]; Y75 value (no ‡ mark)): 430 nM | Atrial EC25 ([2]; Y75 value (no ‡ mark)): 2020 nM | Ventricular EC25 ([3]; Y75 value (no ‡ mark)): 5120 nM

C[C@H](NC(=O)Cc1c(C2CC2)c2c(F)c(F)ccc2[nH]c1=O)c1ncc(C#N)cc1F [compound 30]
Skeletal EC25 ([1]; Y75 value (no ‡ mark)): 10 nM | Atrial EC25 ([2]; Y75 value (no ‡ mark)): 1930 nM | Ventricular EC25 ([3]; Y75 value (no ‡ mark)): 480 nM

Cc1nc(C#N)cnc1[C@H](C)NC(=O)Cc1cc2c(F)c(F)ccc2[nH]c1=O (single isomer, unassigned) [compound 16]
Skeletal EC25 ([1]; Y75 value (no ‡ mark)): 30 nM | Atrial EC25 ([2]; Y75 value (no ‡ mark)): 70 nM | Ventricular EC25 ([3]; Y75 value (no ‡ mark)): 130 nM

Cc1c(CC(=O)N[C@@H](C)c2ccc(C#N)cn2)c(=O)[nH]c2cccc(C#N)c12 [compound 1077]
Skeletal EC25 ([1]; Y75 value (no ‡ mark)): 110 nM | Atrial EC25 ([2]; Y75 value (no ‡ mark)): 490 nM | Ventricular EC25 ([3]; Y75 value (no ‡ mark)): 310 nM

Cc1c(C(F)(F)C(=O)N[C@@H](C)c2ncc(C#N)cc2F)c(=O)[nH]c2ccnc(C#N)c12 (single isomer, unassigned) [compound 3515]
Skeletal EC25 ([1]; Y75 value): 60 nM | Atrial EC25 [2, 4]: 240 nM | Ventricular EC25 ([3]; Y75 value): 280 nM

C[C@@H](NC(=O)Cc1c(C2CC2)c2c(F)c(F)ccc2[nH]c1=O)c1ncc(C#N)cc1F [compound 29]
Skeletal EC25 ([1]; Y75 value (no ‡ mark)): 1060 nM | Atrial EC25 ([2]; Y75 value (no ‡ mark)): 100000 nM | Ventricular EC25 ([3]; Y75 value (no ‡ mark)): 100000 nM

C[C@H](NC(=O)Cc1c(C2CC2)c2c(F)c(F)ccc2[nH]c1=O)c1ncc(C#N)cn1 (single isomer, unassigned) [compound 2068]
Skeletal EC25 ([1]; Y75 value (no ‡ mark)): 870 nM | Atrial EC25 ([2]; Y75 value (no ‡ mark)): 47170 nM | Ventricular EC25 ([3]; Y75 value (no ‡ mark)): 93240 nM

N#Cc1cnc2c(c1)COC[C@H]2NC(=O)Cc1cc2cc(F)c(F)cc2[nH]c1=O [compound 1054]
Skeletal EC25 ([1]; Y75 value (no ‡ mark)): 100000 nM | Atrial EC25 ([2]; Y75 value (no ‡ mark)): 19090 nM | Ventricular EC25 ([3]; Y75 value (no ‡ mark)): 100000 nM

Cc1cccc2[nH]c(=O)c(CC(=O)N[C@H](C)c3ccc(C#N)cn3)c(C#N)c12 [compound 1110]
Skeletal EC25 ([1]; Y75 value (no ‡ mark)): 2280 nM | Atrial EC25 ([2]; Y75 value (no ‡ mark)): 4080 nM | Ventricular EC25 ([3]; Y75 value (no ‡ mark)): 100000 nM

Cc1cc(C#N)cnc1[C@@H](C)NC(=O)Cc1cc2c(C#N)nccc2[nH]c1=O [compound 476]
Skeletal EC25 ([1]; Y75 value): 230 nM | Atrial EC25 [2, 4]: 1380 nM | Ventricular EC25 ([3]; Y75 value): 770 nM

Cc1c(CC(=O)N[C@H](C)c2ccc(C#N)cc2F)c(=O)[nH]c2cnc(C(F)(F)F)nc12 [compound 144]
Skeletal EC25 ([1]; Y75 value): 100000 nM | Atrial EC25 [2, 4]: 100000 nM | Ventricular EC25 ([3]; Y75 value): 100000 nM

Cc1c(CC(=O)N[C@@H]2COc3cc(C#N)cc(F)c32)c(=O)[nH]c2ccc(F)c(C#N)c12 (single isomer, unassigned) [compound 59]
Skeletal EC25 ([1]; Y75 value (no ‡ mark)): 20 nM | Atrial EC25 ([2]; Y75 value (no ‡ mark)): 90 nM | Ventricular EC25 ([3]; Y75 value (no ‡ mark)): 70 nM

Cc1c(CC(=O)N[C@@H](C)c2ccc(F)cc2F)c(=O)[nH]c2cnnc(C#N)c12 [compound 239]
Skeletal EC25 ([1]; Y75 value): 650 nM | Atrial EC25 [2, 4]: 4640 nM | Ventricular EC25 ([3]; Y75 value): 10800 nM

Cc1c(CC(=O)N[C@@H](C)c2cnc(C#N)cn2)c(=O)[nH]c2cc(F)ccc12 [compound 1085]
Skeletal EC25 ([1]; Y75 value (no ‡ mark)): 100000 nM | Atrial EC25 ([2]; Y75 value (no ‡ mark)): 44260 nM | Ventricular EC25 ([3]; Y75 value (no ‡ mark)): 100000 nM

Cc1c(C(F)(F)C(=O)N[C@@H](C)c2ccc(C#N)cc2F)c(=O)[nH]c2ccnc(C#N)c12 (single isomer, unassigned) [compound 3514]
Skeletal EC25 ([1]; Y75 value): 50 nM | Atrial EC25 [2, 4]: 110 nM | Ventricular EC25 ([3]; Y75 value): 130 nM

COc1nccc2[nH]c(=O)c([C@@H](C)C(=O)N[C@@H](C)c3ccc(F)cc3F)c(C3CC3)c12 (single isomer, unassigned) [compound 412]
Skeletal EC25 ([1]; Y75 value): 100000 nM | Atrial EC25 [2, 4]: 76170 nM | Ventricular EC25 ([3]; Y75 value): 100000 nM

COc1c(CC(=O)N[C@@H](C)c2ccc(F)cc2F)c(=O)[nH]c2ccccc12 [compound 132]
Skeletal EC25 ([1]; Y75 value (no ‡ mark)): 100000 nM | Atrial EC25 ([2]; Y75 value (no ‡ mark)): 100000 nM | Ventricular EC25 ([3]; Y75 value (no ‡ mark)): 100000 nM
